Hit rate of the full screen: of about 310,000 compounds, about 14,000 (4.5%) showed an effect of 50% or more. The effect is printed as a negative number. The list shows a part of the results.
Each compound was assayed against human ether-à-go-go-related gene (hERG) potassium channel (human, UniProt Q12809) (assay: primary screen, population patch clamp on CHO cells stably expressing hERG).
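Note: peak tail current of the secondary pulse compared with the same well before compound.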

human ether-à-go-go-related gene (hERG) potassium channel, sequence (Q12809 whole entry, looked up): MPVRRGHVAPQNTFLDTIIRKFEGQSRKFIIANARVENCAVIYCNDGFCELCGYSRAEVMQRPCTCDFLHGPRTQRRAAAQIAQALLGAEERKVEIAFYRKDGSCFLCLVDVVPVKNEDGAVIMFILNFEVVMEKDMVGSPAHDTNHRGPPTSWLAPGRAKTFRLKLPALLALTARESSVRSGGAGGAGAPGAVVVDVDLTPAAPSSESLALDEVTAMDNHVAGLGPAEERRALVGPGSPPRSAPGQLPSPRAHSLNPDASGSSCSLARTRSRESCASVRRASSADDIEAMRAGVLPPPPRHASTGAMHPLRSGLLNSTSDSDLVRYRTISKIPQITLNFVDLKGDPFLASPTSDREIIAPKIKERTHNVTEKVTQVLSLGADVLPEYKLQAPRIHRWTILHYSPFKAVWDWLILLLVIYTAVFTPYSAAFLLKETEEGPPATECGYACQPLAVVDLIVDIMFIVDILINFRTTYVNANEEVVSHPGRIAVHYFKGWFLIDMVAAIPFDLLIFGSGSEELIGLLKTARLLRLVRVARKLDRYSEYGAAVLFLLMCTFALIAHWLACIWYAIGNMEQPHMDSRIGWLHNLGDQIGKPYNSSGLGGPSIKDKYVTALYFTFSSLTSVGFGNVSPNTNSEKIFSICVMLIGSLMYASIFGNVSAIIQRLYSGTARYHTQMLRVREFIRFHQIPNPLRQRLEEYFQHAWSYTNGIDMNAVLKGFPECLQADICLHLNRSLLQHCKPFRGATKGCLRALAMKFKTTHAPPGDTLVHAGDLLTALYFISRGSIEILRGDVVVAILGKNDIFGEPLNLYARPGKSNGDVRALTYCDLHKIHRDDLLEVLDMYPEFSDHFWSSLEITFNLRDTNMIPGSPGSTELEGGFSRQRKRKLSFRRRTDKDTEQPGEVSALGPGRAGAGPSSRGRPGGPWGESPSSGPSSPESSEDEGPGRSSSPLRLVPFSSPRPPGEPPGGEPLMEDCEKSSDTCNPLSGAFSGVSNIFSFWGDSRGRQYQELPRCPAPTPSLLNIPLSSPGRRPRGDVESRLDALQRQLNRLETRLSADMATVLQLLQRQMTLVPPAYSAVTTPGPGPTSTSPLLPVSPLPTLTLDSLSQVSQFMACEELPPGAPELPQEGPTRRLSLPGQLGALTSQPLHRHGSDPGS

SMILES | hERG current change (%, negative = inhibition) at 10uM [%]
CCCCN(CC)CCCNC(=O)c1cc2c(=O)n(C)c3ccccc3c2n1C | -42.1
CCOC(=O)C1(Cc2cccc(F)c2)CCN(C(=O)c2cnc(C)cn2)CC1 | -22.6
CC(Sc1n[nH]c(N)n1)C(=O)Nc1ccc(Cl)cn1 (stereo not drawn) | 18.6
C/C(=N\NS(=O)(=O)c1ccccc1)c1ccccc1 | 22.1
OC(CSc1ccc(F)cc1)CN1CCN(c2ccccc2)CC1 (stereo not drawn) | -41.7
NC(=O)C1CCCN(C(=O)c2ccc3c(c2)NC(=O)CS3)C1 (stereo not drawn) | 11.2
CCCN(CCC)CC(O)Cn1c2ccccc2c2ccccc21 (stereo not drawn) | -32.1
Cc1ccc(NS(=O)(=O)c2ccc3c(c2)NC(=O)C(C)C(=O)N3)c(Br)c1 (stereo not drawn) | 17.3
CCn1ccnc1CN(C)Cc1nc(CCC(C)C)no1 | 4.23
CCn1c(CSc2nncn2-c2ccc(OC)cc2)nc2cc(S(=O)(=O)N(C)C)ccc21 | -14.5
Cc1nn(-c2ccccc2)c2sc(C(=O)NC3CCCCC3)cc12 | -11.8
Cc1ccc2[nH]c(=O)c(C(c3nnnn3C(C)(C)C)N3CCN(C(=O)c4ccco4)CC3)cc2c1 (stereo not drawn) | -24.8
COc1ccc(C(=O)NNC(=S)Nc2ccccc2)cc1 | 14
COC(=O)COc1ccc(C2Nc3c(Cl)ccc(C(=O)O)c3C3C=CCC32)cc1 (stereo not drawn) | 12.9
CNc1snc(C)c1C(=O)OC(C)C(=O)c1ccc(F)cc1 (stereo not drawn) | -18.6
O=c1[nH]c(-c2ccccc2)nc(-c2ccccc2)c1Cl | -0.306
CCn1cc(SCC(=O)NC2CCCC2)c2ccccc21 | -4.12
Cc1cc(-c2cccs2)c2c(N)c(C(=O)c3ccc4c(c3)OCO4)sc2n1 | 5.2
CC(C)(C)NC(=O)CCN(/N=C/c1ccc([N+](=O)[O-])o1)C1=NS(=O)(=O)c2ccccc21 | 1.37
CC(=O)Cn1ncc(N2CCOCC2)c(Br)c1=O | 17.6
COc1ccc(CNC(=O)C2CCC(CNS(=O)(=O)c3cccc4cccnc34)CC2)cc1 (stereo not drawn) | 0.14
COc1ccc(Cn2c(=O)[nH]c3cc(C(=O)N4CCN(c5ccc(C(C)=O)cc5)CC4)ccc3c2=O)cc1 | 9.1
CCCn1c(=O)c2c(c3ccccc31)OCC(=O)N2 | 12.5

SMILES | hERG current change (%, negative = inhibition) at 10uM [%]
COc1cc(/C=N/NC(=O)c2ccncc2)ccc1OCc1cnc(Cl)s1 | 2.43
CC1C2=C(CC(C)(C)CC2=O)NC2=C1C(=O)CC(C)(C)C2 | 30.4
O=C(OCC(=O)N1CCOCC1)c1ccc2ccccc2c1 | -17.9
Cn1c(/C(C#N)=C/c2ccc(O)cc2)nc2ccccc21 | -0.139
Cc1ccc(CN2CCN(c3cccc4[nH]ccc34)CC2)cc1 | -60.4
Cc1ccc(NC(=O)CSc2nnc(-c3cc(C)on3)o2)cc1 | 17.1
CCOC(=O)N1CCN(Cc2nc(-c3cccs3)no2)CC1 | -11.6
CCOC(=O)NC1=NCC(C)S1 (stereo not drawn) | 20.2
Cc1[nH]c2ccccc2c1CCN(Cc1cccs1)C(=S)NC(C)(C)C | 3.32
CCCCn1cnc2c(oc3nc4c(cc32)CCCC4)c1=O | -55.5
COc1ccc(NS(=O)(=O)/C=C/c2ccc(OC)c(OC)c2)cc1 | 4.7
C[N+]1(C)CC2([N+](=O)[O-])CC=C(Oc3ccccc3)C([N+](=O)[O-])(C2)C1 (stereo not drawn) | 13.8
Cc1cccc(NC(=O)CCNS(=O)(=O)c2ccc(Cl)cc2)c1 | 18.4
Cc1cccc(CS(=O)(=O)Cc2ccc(C(=O)NC3CCCC3)o2)c1 | -27.7
Cc1cccc(C(=O)NCC(c2ccco2)N(C)C)c1 (stereo not drawn) | 11.1
CCOC(=O)CSc1nc2sc3c(c2c(=O)n1-c1ccc(OCC)cc1)CCN(C)C3 | -53.9
NC(=O)c1cc(S(=O)(=O)NC2CCCCC2)co1 | -2.46
COc1cc2c(cc1OC)C(c1ccccc1)N(C(=O)c1cccc(S(C)(=O)=O)c1)CC2 (stereo not drawn) | -24
CCOc1cc(C(=O)Nc2ccc(N3CCN(C(C)=O)CC3)cc2)cc(OCC)c1OCC | 11.1
COc1ccc2c(C)c(C(=O)N3CCN(Cc4ccccc4)CC3)oc2c1.Cl | -22.6
O=C(CN1C(=O)NC2(CCCC2)C1=O)Nc1ccc(F)c(F)c1F | -3.2
Cc1ccc(=O)n(C(C(=O)NCc2ccco2)C(=O)c2ccc(F)cc2)c1 (stereo not drawn) | -2.69
